This is one part of the list. Single values are uncertain, as repeats are few or missing.
What was measured:
Assay in all cases: cell count relative to DMSO control; melanoma cells; higher = more viable cells
Conditions in all cases: library dose: low library concentration; 72 h; first compound 0.4 µM
COLO792 = system: COLO792
COLO800 = system: COLO800
COLO829 = system: COLO829
G361 = system: G361
IPC-298 = system: IPC-298
IST-MEL1 = system: IST-MEL1
LB2518-MEL = system: LB2518-MEL
LOXIMVI = system: LOXIMVI
MEL-HO = system: MEL-HO
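Note: cell number obtained by counting DAPI-stained nuclei in high-throughput microscope images with image analysis software, screen run in 1,536-well plates.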

SMILES	cell count (COLO792) [%]	cell count (COLO800) [%]	cell count (COLO829) [%]	cell count (G361) [%]	cell count (IPC-298) [%]	cell count (IST-MEL1) [%]	cell count (LB2518-MEL) [%]	cell count (LOXIMVI) [%]	cell count (MEL-HO) [%]
C[C@@H](N)c1ccc(C(=O)Nc2ccnc3[nH]ccc23)cc1 + CCc1ccc(CCOc2ccc(CC3SC(=O)NC3=O)cc2)nc1 [pioglitazone] (partner dose 2 µM)	102	121	94.4	113	101	97.2	99.5	77.1	88.5
CCCCCCCCCCCCCCCCCCOP(=O)([O-])OC1CC[N+](C)(C)CC1 [Perifosine] + C[C@@H]1CCN(C(=O)CC#N)C[C@@H]1N(C)c1ncnc2[nH]ccc12 [CP690550] (partner dose 1 µM)	107	93.5	132	99.7	103	99.9	93.6	119	117
Cn1sc(=O)n(Cc2ccccc2)c1=O + O=C(Nc1ccccc1)c1cc([N+](=O)[O-])ccc1Cl [GW9662] (partner dose 2 µM)	85.4	97.5	86.2	105	110	97.6	97.6	108	86.7
CCCCCCCCCCCCCCCCCCOP(=O)([O-])OC1CC[N+](C)(C)CC1 [Perifosine] + CCc1ccc(CCOc2ccc(CC3SC(=O)NC3=O)cc2)nc1 [pioglitazone] (partner dose 2 µM)	98.5	121	98.5	90.5	97.9	87.9	36.8	87.9	99.7
CCCCCCCCCCCCCCCCCCOP(=O)([O-])OC1CC[N+](C)(C)CC1 [Perifosine] + Cc1cc(N2CCOCC2)cc2[nH]c(-c3c(NC[C@@H](O)c4cccc(Cl)c4)cc[nH]c3=O)nc12 [BMS536924] (partner dose 0.2 µM)	84.4	70.7	111	91.7	99.5	99.3	114	106	103
Cn1sc(=O)n(Cc2ccccc2)c1=O + c1cc(-c2cnn3cc(-c4ccc(OCCN5CCCCC5)cc4)cnc23)ccn1 [Dorsomorphin] (partner dose 0.4 µM)	103	74.9	103	86.4	99.5	102	94.7	65.6	93.1
CCCCCCCCCCCCCCCCCCOP(=O)([O-])OC1CC[N+](C)(C)CC1 [Perifosine] + Oc1nc(-c2ccc(C(F)(F)F)cc2)nc2c1CSCC2 [XAV939] (partner dose 2 µM)	78.1	145	119	91.9	105	96.7	102	94.6	94.5
CCCCCCCCCCCCCCCCCCOP(=O)([O-])OC1CC[N+](C)(C)CC1 [Perifosine] + NCC(=O)Nc1ccc(-n2nc(C(F)(F)F)cc2-c2ccc3c(ccc4ccccc43)c2)cc1 [OSU03012] (partner dose 1 µM)	92.1	65.6	80.1	106	86.1	94	96.9	88.8	97.2
C[C@@H](N)c1ccc(C(=O)Nc2ccnc3[nH]ccc23)cc1 + COc1cc2c(Oc3ccc4[nH]c(C)cc4c3F)ncnc2cc1OCCCN1CCCC1 [cediranib] (partner dose 0.4 µM)	76.7	80.4	123	98.6	102	103	118	66.6	84.6
CCCCCCCCCCCCCCCCCCOP(=O)([O-])OC1CC[N+](C)(C)CC1 [Perifosine] + O=C(O)C(=O)Nc1sc2c(c1C(=O)O)CCNC2 [TCS401] (partner dose 1.66667 µM)	105	77	99.5	95.7	98.9	111	117	94.1	93.9
CCCCCCCCCCCCCCCCCCOP(=O)([O-])OC1CC[N+](C)(C)CC1 [Perifosine] + CC1(C)NC(=O)N(c2ccc([N+](=O)[O-])c(C(F)(F)F)c2)C1=O [nilutamide] (partner dose 1 µM)	91.6	70.3	85.5	104	101	111	88.5	78.4	92.4
Cn1sc(=O)n(Cc2ccccc2)c1=O + COc1ccc2c(c1)CCC1C2CCC2(C)C(NCCCCCCN3C(=O)C=CC3=O)CCC12 [U73122] (partner dose 0.4 µM)	87.6	97.9	117	85.6	101	94.2	89.7	104	93.6
Cn1sc(=O)n(Cc2ccccc2)c1=O + CC1(C)NC(=O)N(c2ccc([N+](=O)[O-])c(C(F)(F)F)c2)C1=O [nilutamide] (partner dose 1 µM)	104	82	79.3	94.1	101	106	94	80.5	91.9
C[C@@H](N)c1ccc(C(=O)Nc2ccnc3[nH]ccc23)cc1 + COc1ccc(-c2ccc3c(N4CCOCC4)nc(N4C[C@@H](C)O[C@@H](C)C4)nc3n2)cc1CO [KU0063794] (partner dose 0.02 µM)	101	132	112	121	97.1	97.9	96.2	79.3	95.1
CCCCCCCCCCCCCCCCCCOP(=O)([O-])OC1CC[N+](C)(C)CC1 [Perifosine] + O=C1NC(=O)/C(=C/c2ccc(-c3ccc(F)cc3O)o2)S1 [AS252424] (partner dose 1 µM)	97.6	107	113	104	94.6	100	99.4	71.2	94
CCCCCCCCCCCCCCCCCCOP(=O)([O-])OC1CC[N+](C)(C)CC1 [Perifosine] + O=C(CCCCCCC(=O)Nc1ccccc1)NO [vorinostat] (partner dose 0.08 µM)	94.6	87.4	110	79.2	99.6	99.9	89.9	128	107
C[C@@H](N)c1ccc(C(=O)Nc2ccnc3[nH]ccc23)cc1 + CN(C)S(=O)(=O)c1ccc2c(c1)/C(=C/c1cc3c([nH]1)CCCC3)C(=O)N2 [SU6656] (partner dose 0.4 µM)	78.7	191	102	99.2	99.2	88.6	117	77.5	80.4
Cn1sc(=O)n(Cc2ccccc2)c1=O + CC(C)(C)c1cnc(CSc2cnc(NC(=O)C3CCNCC3)s2)o1 [SNS-032] (partner dose 0.01 µM)	97.3	82.3	98.6	94.1	102	92.9	86	79	94.7
CCCCCCCCCCCCCCCCCCOP(=O)([O-])OC1CC[N+](C)(C)CC1 [Perifosine] + c1cc(-c2cnn3cc(-c4ccc(OCCN5CCCCC5)cc4)cnc23)ccn1 [Dorsomorphin] (partner dose 0.4 µM)	106	202	115	96.2	104	97.4	84	257	78
Cn1sc(=O)n(Cc2ccccc2)c1=O + NC(=O)Nc1cc(-c2cccc(F)c2)sc1C(=O)N[C@H]1CCCNC1 [AZD7762] (partner dose 0.02 µM)	103	99.7	114	104	108	113	141	110	96.1
C[C@@H](N)c1ccc(C(=O)Nc2ccnc3[nH]ccc23)cc1 + CC1(C)NC(=O)N(c2ccc([N+](=O)[O-])c(C(F)(F)F)c2)C1=O [nilutamide] (partner dose 1 µM)	93.6	138	113	99.5	96.9	122	118	90.3	101
CCCCCCCCCCCCCCCCCCOP(=O)([O-])OC1CC[N+](C)(C)CC1 [Perifosine] + O=C(Nc1cccc(Cl)c1)Nc1ncc(CCNc2ncnc3ccsc23)s1 [SNS314] (partner dose 0.0008 µM)	87.7	72.5	108	99.2	104	103	82.3	63.8	95.6
Cn1sc(=O)n(Cc2ccccc2)c1=O + COc1cc2ncnc(Nc3ccc(Oc4ccccc4)cc3)c2cc1OC [SrcI1] (partner dose 2 µM)	87.3	87.7	123	92.5	88.5	100	104	122	86.5
Cn1sc(=O)n(Cc2ccccc2)c1=O + Cn1cc(/C=C2\C(=O)Nc3cccnc32)c2ccccc21 [GW441756] (partner dose 0.4 µM)	98.2	95.2	95.4	91.8	109	99.2	110	86.9	105
C[C@@H](N)c1ccc(C(=O)Nc2ccnc3[nH]ccc23)cc1 + CC(C)CCN1c2nc(Nc3cc(F)c(O)c(F)c3)ncc2N(C)C(=O)C1C [BID1870] (partner dose 0.2 µM)	77.3	111	97.6	115	98.3	83.3	106	44.4	96.3
CCCCCCCCCCCCCCCCCCOP(=O)([O-])OC1CC[N+](C)(C)CC1 [Perifosine] + COc1cc(N2CCC(N3CCN(C)CC3)CC2)ccc1Nc1ncc(Cl)c(Nc2ccccc2S(=O)(=O)C(C)C)n1 [NVP-TAE684] (partner dose 0.08 µM)	89.8	93.8	85.8	119	94.8	103	94.8	103	97
Cn1sc(=O)n(Cc2ccccc2)c1=O + CCc1ccc(CCOc2ccc(CC3SC(=O)NC3=O)cc2)nc1 [pioglitazone] (partner dose 2 µM)	89.6	78.8	77	101	101	105	94.6	84.7	90.1
